Here are results for 31 molecules from publication PMC9911399, “Two distinct binding modes provide the RNA-binding protein RbFox with extraordinary sequence specificity”.

To fix the notation:
T1: RBFOX1 RRM RbFoxmut (Fox-RRM*) (Homo sapiens, UniProt Q9NWB1 109-208, R118D;E147R;N151S;E152T)
T1 sequence: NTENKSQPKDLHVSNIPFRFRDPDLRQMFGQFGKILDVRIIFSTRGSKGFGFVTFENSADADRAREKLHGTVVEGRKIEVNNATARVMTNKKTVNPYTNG

B1: ACAAAUA (DNA:RNA)
RNA: GGGAGACCGGAAUUCAGAUUGUCCACAAAUAUUAAAUCCCGUCGUAGCCACCA
DNA 1: CAATCTGAATTCCGGTCTCCC
DNA 2: TGGTGGCTACGACGGGATT
B2: AGCCGUC (DNA:RNA)
RNA: B1 RNA with C26G, A27C, A28C, A29G, A31C
DNA 1: CAATCTGAATTCCGGTCTCCC
DNA 2: TGGTGGCTACGACGGGATT
B3: GUAGAAG (DNA:RNA)
RNA: B1 RNA with A25G, C26U, A28G, U30A, A31G
DNA 1: CAATCTGAATTCCGGTCTCCC
DNA 2: TGGTGGCTACGACGGGATT
B4: CUUAGUU (DNA:RNA)
RNA: B1 RNA with A25C, C26U, A27U, A29G, A31U
DNA 1: CAATCTGAATTCCGGTCTCCC
DNA 2: TGGTGGCTACGACGGGATT
B5: CAUUGCG (DNA:RNA)
RNA: GGGAGACCGGAAUUCAGAUUGUCCCAUUGCGUUAAAUCCCGUCGUAGCCACCA
DNA 1: CAATCTGAATTCCGGTCTCCC
DNA 2: TGGTGGCTACGACGGGATT
B6: CAGGCCA (DNA:RNA)
RNA: B5 RNA with U27G, U28G, G29C, G31A
DNA 1: CAATCTGAATTCCGGTCTCCC
DNA 2: TGGTGGCTACGACGGGATT
B7: UAAACUC (DNA:RNA)
RNA: B1 RNA with A25U, C26A, A29C, A31C
DNA 1: CAATCTGAATTCCGGTCTCCC
DNA 2: TGGTGGCTACGACGGGATT
B8: ACCUUCC (DNA:RNA)
RNA: B1 RNA with A27C, A28U, A29U, U30C, A31C
DNA 1: CAATCTGAATTCCGGTCTCCC
DNA 2: TGGTGGCTACGACGGGATT
B9: GCGAUUG (DNA:RNA)
RNA: B1 RNA with A25G, A27G, A29U, A31G
DNA 1: CAATCTGAATTCCGGTCTCCC
DNA 2: TGGTGGCTACGACGGGATT
B10: CCGGGCU (DNA:RNA)
RNA: B5 RNA with A26C, U27G, U28G, G31U
DNA 1: CAATCTGAATTCCGGTCTCCC
DNA 2: TGGTGGCTACGACGGGATT
B11: UGAGAUG (DNA:RNA)
RNA: B1 RNA with A25U, C26G, A28G, A31G
DNA 1: CAATCTGAATTCCGGTCTCCC
DNA 2: TGGTGGCTACGACGGGATT
B12: UCUAUAU (DNA:RNA)
RNA: B1 RNA with A25U, A27U, A29U, U30A, A31U
DNA 1: CAATCTGAATTCCGGTCTCCC
DNA 2: TGGTGGCTACGACGGGATT
B13: GUAUCCU (DNA:RNA)
RNA: B5 RNA with C25G, A26U, U27A, G29C, G31U
DNA 1: CAATCTGAATTCCGGTCTCCC
DNA 2: TGGTGGCTACGACGGGATT
B14: UCUAUAG (DNA:RNA)
RNA: B1 RNA with A25U, A27U, A29U, U30A, A31G
DNA 1: CAATCTGAATTCCGGTCTCCC
DNA 2: TGGTGGCTACGACGGGATT
B15: GUUGCAC (DNA:RNA)
RNA: B5 RNA with C25G, A26U, U28G, G29C, C30A, G31C
DNA 1: CAATCTGAATTCCGGTCTCCC
DNA 2: TGGTGGCTACGACGGGATT
B16: UGAGAAA (DNA:RNA)
RNA: B1 RNA with A25U, C26G, A28G, U30A
DNA 1: CAATCTGAATTCCGGTCTCCC
DNA 2: TGGTGGCTACGACGGGATT
B17: GAGUAGA (DNA:RNA)
RNA: B1 RNA with A25G, C26A, A27G, A28U, U30G
DNA 1: CAATCTGAATTCCGGTCTCCC
DNA 2: TGGTGGCTACGACGGGATT
B18: UCUAAAU (DNA:RNA)
RNA: B1 RNA with A25U, A27U, U30A, A31U
DNA 1: CAATCTGAATTCCGGTCTCCC
DNA 2: TGGTGGCTACGACGGGATT
B19: UCCCAUC (DNA:RNA)
RNA: B1 RNA with A25U, A27C, A28C, A31C
DNA 1: CAATCTGAATTCCGGTCTCCC
DNA 2: TGGTGGCTACGACGGGATT
B20: UUGUCCU (DNA:RNA)
RNA: B5 RNA with C25U, A26U, U27G, G29C, G31U
DNA 1: CAATCTGAATTCCGGTCTCCC
DNA 2: TGGTGGCTACGACGGGATT
B21: AGCGCCG (DNA:RNA)
RNA: B5 RNA with C25A, A26G, U27C, U28G, G29C
DNA 1: CAATCTGAATTCCGGTCTCCC
DNA 2: TGGTGGCTACGACGGGATT
B22: AACUGCC (DNA:RNA)
RNA: B5 RNA with C25A, U27C, G31C
DNA 1: CAATCTGAATTCCGGTCTCCC
DNA 2: TGGTGGCTACGACGGGATT
B23: ACCUCAU (DNA:RNA)
RNA: B1 RNA with A27C, A28U, A29C, U30A, A31U
DNA 1: CAATCTGAATTCCGGTCTCCC
DNA 2: TGGTGGCTACGACGGGATT
B24: AAAGUUC (DNA:RNA)
RNA: B1 RNA with C26A, A28G, A29U, A31C
DNA 1: CAATCTGAATTCCGGTCTCCC
DNA 2: TGGTGGCTACGACGGGATT
B25: GCAAUUG (DNA:RNA)
RNA: B1 RNA with A25G, A29U, A31G
DNA 1: CAATCTGAATTCCGGTCTCCC
DNA 2: TGGTGGCTACGACGGGATT
B26: CGAUUUG (DNA:RNA)
RNA: B5 RNA with A26G, U27A, G29U, C30U
DNA 1: CAATCTGAATTCCGGTCTCCC
DNA 2: TGGTGGCTACGACGGGATT
B27: AGGGAUA (DNA:RNA)
RNA: B1 RNA with C26G, A27G, A28G
DNA 1: CAATCTGAATTCCGGTCTCCC
DNA 2: TGGTGGCTACGACGGGATT
B28: CGACAAU (DNA:RNA)
RNA: B1 RNA with A25C, C26G, A28C, U30A, A31U
DNA 1: CAATCTGAATTCCGGTCTCCC
DNA 2: TGGTGGCTACGACGGGATT
B29: GACCUAC (DNA:RNA)
RNA: B5 RNA with C25G, U27C, U28C, G29U, C30A, G31C
DNA 1: CAATCTGAATTCCGGTCTCCC
DNA 2: TGGTGGCTACGACGGGATT
B30: CAAUUCU (DNA:RNA)
RNA: B5 RNA with U27A, G29U, G31U
DNA 1: CAATCTGAATTCCGGTCTCCC
DNA 2: TGGTGGCTACGACGGGATT
B31: UGUGCUU (DNA:RNA)
RNA: B1 RNA with A25U, C26G, A27U, A28G, A29C, A31U
DNA 1: CAATCTGAATTCCGGTCTCCC
DNA 2: TGGTGGCTACGACGGGATT

Positions count from the first letter of the chain named. This is one part of the list.

The target in this assay is T1, RBFOX1 RRM RbFoxmut (Fox-RRM*). The experiment in a line: EMSA; HiTS-Eq, 1 nM pool, 10 min; buffer printed only for the single-RNA assays: 10 mM Tris pH 7.5, 150 mM NaCl, 3.4 mM EDTA, 0.001% NP-40, 30 C. The conditions noted are these: tags: His6 N-terminal (pET28a); label: 5' 32P. The method, boiled down:
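Purified RbFox RRM (wild type or mutant) was equilibrated for 10 min in 50 µL with 1 nM of a 5′-radiolabelled pool of RNA with 7 randomized nucleotides, its flanks annealed to DNA oligonucleotides, across increasing protein concentrations. Free RNA was separated by 8% native PAGE, excised, reverse-transcribed, PCR-barcoded and sequenced on an Illumina HiSeq 2500. Relative association constants came from read-count changes of each variant against the control reaction, normalised to the cognate motif.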
A general note: Mobility shift assays separate free from complexed probe on a gel.
Regarding B1, the binding signal is 0.124 KA relative to UGCAUGU.

For B2, the binding signal was 0.0938 KA relative to UGCAUGU.

For B3, the binding signal was 0.123 KA relative to UGCAUGU.

Take B4: the binding signal is 0.105 KA relative to UGCAUGU.

As for B5, the binding signal is 0.151 KA relative to UGCAUGU.

Consider B6, for which the binding signal was 0.093 KA relative to UGCAUGU.

As for B7, the binding signal is 0.0578 KA relative to UGCAUGU.

Consider B8, for which the binding signal was 0.0594 KA relative to UGCAUGU.

In the case of B9, the binding signal was 0.206 KA relative to UGCAUGU.

With B10, the binding signal is 0.0717 KA relative to UGCAUGU.

Take B11: the binding signal is 0.429 KA relative to UGCAUGU.

Regarding B12, the binding signal was 0.106 KA relative to UGCAUGU.

B13: the binding signal was 0.168 KA relative to UGCAUGU.

Regarding B14, the binding signal was 0.133 KA relative to UGCAUGU.

With B15, the binding signal is 0.103 KA relative to UGCAUGU.

Take B16: the binding signal is 0.087 KA relative to UGCAUGU.

Consider B17, for which the binding signal was 0.117 KA relative to UGCAUGU.

B18: the binding signal was 0.0872 KA relative to UGCAUGU.

With B19, the binding signal is 0.107 KA relative to UGCAUGU.

As for B20, the binding signal was 0.0981 KA relative to UGCAUGU.

On to B21, for which the binding signal is 0.116 KA relative to UGCAUGU.

As for B22, the binding signal was 0.156 KA relative to UGCAUGU.

For B23, the binding signal was 0.117 KA relative to UGCAUGU.

B24: the binding signal is 0.0827 KA relative to UGCAUGU.

As to B25, the binding signal is 0.0871 KA relative to UGCAUGU.

For the molecule B26, the binding signal is 0.081 KA relative to UGCAUGU.

On to B27, for which the binding signal was 0.131 KA relative to UGCAUGU.

In the case of B28, the binding signal was 0.0419 KA relative to UGCAUGU.

In the case of B29, the binding signal is 0.0986 KA relative to UGCAUGU.

Take B30: the binding signal is 0.062 KA relative to UGCAUGU.

As for B31, the binding signal is 0.0903 KA relative to UGCAUGU.
